Laboratory results as given in PubChem BioAssay AID504845 (National Center for Advancing Translational Sciences (NCATS), 2011).
Several values for one entry are separate records, joined by “and”; a condition that tells them apart may be missing. Equal entries are not always repeated. Hit rate of the full screen: of about 390,000 compounds, about 150 (0.038%) were called active. Another 3% or so got no clear call; they are omitted. Calls follow the shape of the dose curve; as a rule, active = well fitted inhibition curve with a large enough effect; inconclusive = small, poorly fitted or top-dose-only effect; inactive = no such curve, though single readings can be large or run the other way. The entries are a selection whose mix differs from that of the whole data set. More than one record can exist for a structure, and the calls need not agree.

The compounds below were run against Regulator of G-protein signaling 4 (Homo sapiens) (UniProt P49798) (assay: Inhibitors of Regulator of G Protein Signaling (RGS) 4: qHTS). Conditions: Transcreener GDP fluorescence polarization, RGS4-accelerated GTP hydrolysis; series mostly up to 114 µM; activity change, negative = inhibition: at the top concentration.
Chain of UniProt P49798 (P49798 whole entry, looked up): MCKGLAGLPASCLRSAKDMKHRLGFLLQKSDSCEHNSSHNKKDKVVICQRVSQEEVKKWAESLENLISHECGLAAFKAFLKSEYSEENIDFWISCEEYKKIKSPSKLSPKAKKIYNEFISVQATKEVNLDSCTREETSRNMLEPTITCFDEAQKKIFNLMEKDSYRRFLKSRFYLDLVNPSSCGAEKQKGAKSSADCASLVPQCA
Method in brief: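 MLSMR compounds (23 nl, pin-transferred) preincubated 10 min at room temperature with a 500nM (2x) first reagent, then RGS4 at 900nM (2x) plus Transcreener GDP mix added; fluorescence polarization (620/688 nm) read before and after 90 min at 30 °C.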
% is scaled to controls: 0 for no effect and ±100 for the full control effect; potency is read from the fitted curve at half-maximal effect.
Also: nearly all actives have a fitted effect of over 75% in size.

Row | Structure (SMILES) | activity change, negative = inhibition | Potency
1 | Cc1ccc(NP(=O)(Nc2ccc(C)cc2)Nc2ccc(C)cc2)cc1 | inactive: 69.5% | –
2 | CC(=O)N[C@@H](CS)C(=O)O | inactive: 2.53% | –
3 | O=c1[nH]c(=O)c2nc3ccccc3nc2[nH]1 | inactive: -9.84% | –
4 | O=C(CSc1nnc(SCc2ccccc2)s1)N/N=C/C=C\c1ccco1 | inactive: -34.1% | –
5 | Cn1c(=O)cc(OCC(=O)N2CCN(c3ccccc3F)CC2)c2ccccc21 | inactive: 3.58% | –
6 | C[c-]1[c-](C)[c-](C)[c-](C)[c-]1C.[Fe].c1cc2nccc(N3CCCC3)[c-]2c1 (stereo not drawn) | inactive: -35% | –
7 | O=C(CSc1nc2cc3c(cc2c(=O)n1CCC1=CCCCC1)OCO3)NCc1ccco1 | inactive: 57% | –
8 | CC1(C)NC(=O)N(CC(O)CN2CCOCC2)C1=O (stereo not drawn) | inactive: 79.7% | –
9 | O=C(COc1nncc2ccccc12)NCCC1=CCCCC1 | inactive: 55.2% | –
10 | Cc1ccc(OCc2cc(C(=O)N3CCCC3)no2)cn1 | inactive: 57.5% | –
11 | Oc1cc2c(cc1O)CN(C(=S)NCCc1ccc(Cl)cc1)CCC2 | – | active: 16.8 µM
12 | COCCN(C(=O)c1ccco1)C(C(=O)NC1CCCC1)c1cccs1 (stereo not drawn) | inactive: 54.8% | –
13 | O=C1Cc2c([nH]c3ccc(Br)cc23)-c2ccccc2N1 | inactive: -29.4% | –
14 | Cc1coc2c1C(=O)C(=O)c1c-2ccc2c1CCCC2(C)C | inactive: -44% | –
15 | CC(=C/c1ccco1)/C=N/NC(=O)c1nnn(-c2nonc2N)c1CN(C)C | inactive: -34.4% | –
16 | NC(=O)CCNC(=O)c1ccc(Cl)cc1 | inactive: 60.1% | –
17 | COc1ccccc1CNC(=O)C1CCCN(S(=O)(=O)c2cccc3nsnc23)C1 (stereo not drawn) | inactive: 57.4% | –
18 | O=C(CCCN1C(=O)/C(=C\c2cccs2)SC1=S)Nc1ccccn1 | inactive: -3.2% | –
19 | O=c1c(-c2ccc(O)cc2)coc2cc(O)ccc12 | inactive: -5.39% | –
20 | CC(=O)CCCCn1c(=O)c2c(ncn2C)n(C)c1=O | – | inactive
21 | Cc1c(N2C(=O)/C(=C/C3CC=CCC3)SC2=S)c(=O)n(-c2ccccc2)n1C (stereo not drawn) | inactive: -42.9% | –
22 | C[C@@H](N)C1CCC(C(=O)Nc2ccncc2)CC1 (stereo partly drawn) | – | inactive
23 | Cc1ccc2cc3cc(C(=O)N4CCN(C(=O)c5ccco5)CC4)sc3nc2c1 | inactive: 97.1% | –
24 | CC(C(=O)O)c1cccc(C(=O)c2ccccc2)c1 (stereo not drawn) | – | inactive
25 | CSc1cccc(NC(=O)C(C)Sc2ccc(C)cc2)c1 (stereo not drawn) | inactive: 55.1% | –
26 | Cc1cc(C)c2c(c1)C1C=CCC1C(c1ccc(S(=O)(=O)N3CCOCC3)cc1)N2 (stereo not drawn) | inactive: -23.4% | –

Row | Structure (SMILES) | activity change, negative = inhibition | Potency
27 | CC(=O)O[C@H]1C(=O)[C@@]2(C)C([C@H](OC(=O)c3ccccc3)[C@]3(O)C[C@H](OC(=O)[C@H](O)[C@@H](NC(=O)c4ccccc4)c4ccccc4)C(C)=C1C3(C)C)[C@]1(OC(C)=O)CO[C@@H]1C[C@@H]2O (stereo partly drawn) | – | inactive
28 | NCCSSCCN | inactive: -6.78% | –
29 | CCCCCN(CCCCC)C(=O)C(CCC(=O)O)NC(=O)c1ccc(Cl)c(Cl)c1 (stereo not drawn) | – | inactive
30 | CC(C)NCC(O)c1ccc(O)c(O)c1 (stereo not drawn) | inactive: -16.3% | –
31 | c1ccc(-c2nnc(CSc3nnc(-c4cccs4)o3)o2)cc1 | inactive: 68.3% | –
32 | O=C(O)CCC(=O)Nc1sc2c(c1C(=O)Nc1ccccc1)CCCCC2 | inactive: -34.7% | –
33 | CCOC(=O)/C=C/C(=O)N1CCc2ccccc21 | inactive: 58.1% | –
34 | COC(CNC(=O)c1cn(C)c2ccc(S(=O)(=O)N(C)C3CCCCC3)cc2c1=O)OC | inactive: 67.5% | –
35 | COCCCN1C(=O)C(=O)/C(=C(/O)c2ccc(OC)cc2C)C1c1cccnc1 (stereo not drawn) | inactive: 54.3% | –
36 | CCN(CC)C(=S)SSC(=S)N(CC)CC | – | inactive and active: 1.06 µM
37 | Cc1nnc(NC(=O)c2nc(S(=O)(=O)Cc3ccccc3)ncc2Cl)s1 | inactive: 9.18% | –
38 | CCCc1nnc(NC(=O)c2nc(S(=O)(=O)Cc3ccc(C)cc3)ncc2Cl)s1 | inactive: -41.1% | –
39 | Nc1c2c(nc3ccccc13)CCCC2 | – | inactive
40 | O=C1/C(=C/c2cccnc2)Sc2ccccc21 | inactive: -51.9% | –
41 | Cc1sc2nc(CN(CCc3ccccc3)C(=O)c3ccco3)[nH]c(=O)c2c1C | inactive: 164% | –
42 | CCc1ccc2c(-c3cccc(Cl)c3)nc(=O)n(CC)c2n1 | inactive: -102% [at 56.9 µM] | –
43 | CN1C(=O)CCC1c1cccnc1 (stereo not drawn) | inactive: -124% [at 56.9 µM] | –
44 | O=C1CN(/N=C/c2ccc(-c3ccc([N+](=O)[O-])cc3)o2)C(=O)N1 | inactive: 440% [at 56.9 µM] | –
45 | COC(=O)C(C)(N)Cc1ccc(O)cc1 (stereo not drawn) | inactive: -27.7% | –
46 | NC(N)=NC(=O)c1nc(Cl)c(N2CCCCCC2)nc1N | inactive: -1.04% | –
47 | CCN(CC)CCOC(=O)C(Cc1cccc2ccccc12)CC1CCCO1 (stereo not drawn) | inactive: 59.3% | –
48 | CC1=C(/C=C/C(C)=C/C=C/C(C)=C/C(=O)Nc2ccc(O)cc2)C(C)(C)CCC1 | – | inactive
49 | Cc1ccc(-c2n[nH]c3c2CCC3)cc1 | inactive: 57.4% | –
50 | Nc1ncnc2c1ncn2[C@@H]1O[C@H](COP(=O)(O)O)[C@@H](O)[C@H]1O | inactive: -16.8% | –
51 | Cc1oc(-c2ccccc2)cc1C(=O)Nc1cccc(/C=C\C(=O)O)c1 | inactive: -24.8% | –
52 | CCCCCCCCCCCCCCC[C@@H](O)[C@@H](N)CO | inactive: 12.5% | –

Row | Structure (SMILES) | activity change, negative = inhibition | Potency
53 | OC[C@H]1O[C@@H](O[C@@H]2[C@@H](CO)O[C@@](O)(CO)[C@H]2O)[C@H](O)[C@@H](O)[C@H]1O | inactive: 16.4% | –
54 | Cc1cccc(C)c1NC(=O)C(NS(=O)(=O)c1cccs1)c1ccccc1 (stereo not drawn) | inactive: -2.48% | –
55 | Oc1ccc(NCc2ccccc2OCc2ccccc2F)cc1 | inactive: -40% | –
56 | Cc1c(Cl)cccc1NS(=O)(=O)c1ccc(-c2ccc(=O)[nH]n2)o1 | inactive: 64.6% | –
57 | CC(=O)OCC(=O)[C@@]1(O)CC[C@H]2[C@@H]3CCC4=CC(=O)CC[C@]4(C)[C@H]3C(=O)C[C@@]21C | – | inactive
58 | O=C1c2c(O)cc(O)cc2O[C@H](c2ccc(O)c(O)c2)[C@H]1O | inactive: 1.48% | –
59 | COc1cc(OC)c(C(=O)OCC(=O)NC2CCCCCCC2)cc1OC | inactive: 93.4% | –
60 | NC(=O)c1ncn([C@@H]2O[C@H](CO)[C@@H](O)[C@H]2O)c1O | – | inactive
61 | Cc1ccc(C(=O)Nc2ccc(S(=O)(=O)O)c3cc(S(=O)(=O)O)cc(S(=O)(=O)O)c23)cc1NC(=O)c1cccc(NC(=O)Nc2cccc(C(=O)Nc3cc(C(=O)Nc4ccc(S(=O)(=O)O)c5cc(S(=O)(=O)O)cc(S(=O)(=O)O)c45)ccc3C)c2)c1 | inactive: 168% [at 56.9 µM] | –
62 | O=c1oc2ccccc2cc1-c1nc2c(s1)CCc1ccccc1-2 | inactive: -40.8% | –
63 | CC[C@]1(O)CC2CN(CCc3c([nH]c4ccccc34)[C@@](C(=O)OC)(c3cc4c(cc3OC)N(C=O)[C@H]3[C@@](O)(C(=O)OC)[C@H](OC(C)=O)[C@]5(CC)C=CCN6CC[C@]43[C@@H]65)C2)C1 (stereo partly drawn) | inactive: -0.087% | –
64 | O=C(Nc1cccc2nsnc12)c1cccs1 | inactive: -9.37% | –
65 | O=C(NCc1cccnc1)/C(=C/c1ccc(-c2cccc(Cl)c2)o1)S(=O)(=O)c1ccccc1 | inactive: -22.1% | –
66 | N#CC(=Cc1ccc(O)cc1)C(N)=C(C#N)C#N | inactive: -16.5% | –
67 | O=C(O)C1=CCNCC1 | inactive: 4% | –
68 | CCOC(=O)[C@@H]1[C@H]2COc3cc(OC)ccc3[C@@H]2N2C(=O)N(c3ccc(C(F)(F)F)cc3)C(=O)[C@@]12C | inactive: 3.86% | –
69 | O=C1OC[C@H]2CCCN2C(=O)[C@@H](CC(=O)N(CCO)Cc2ccccc2)C/C=C\C[C@@H]1Cc1ccc(F)cc1 | inactive: -13.9% | –
70 | COc1ccccc1-n1c(SCC(=O)O)nc2c(sc(=S)n2-c2ccccc2C)c1=O | inactive: 55.9% | –
71 | CC12C=CC(=O)C=C1CCC1C3CCC(O)(C(=O)CO)C3(C)CC3OC312 (stereo not drawn) | inactive: -24.6% | –
72 | CCC1CCCCN1CCCNC(=O)CCCNC(=O)Cn1cnc2sc3c(c2c1=O)CCCC3 (stereo not drawn) | inactive: 70% | –
73 | CC(N)(C(=O)O)c1ccc(C(=O)O)cc1 (stereo not drawn) | inactive: 19.2% [at 56.9 µM] | –
74 | CN1CCc2cccc3c2C1Cc1ccc(O)c(O)c1-3 (stereo not drawn) | inactive: -52.5% | –
75 | CCC(=O)N[C@@H]1CCc2cccc(OC)c2C1 | inactive: 468% [at 56.9 µM] | –
76 | Cn1c(=O)c2[nH]c(-c3ccc(S(=O)(=O)O)cc3)nc2n(C)c1=O | – | inactive
77 | CN(C)CCCSc1ccccc1NC(=O)/C=C\c1ccccc1 | inactive: -41.5% [at 56.9 µM] | –
78 | CCN(CC)CCCC(C)Nc1c2ccc(Cl)cc2nc2ccc(OC)cc12 (stereo not drawn) | – | active: 21.2 µM

Row | Structure (SMILES) | activity change, negative = inhibition | Potency
79 | O=C(O)[C@@H]1C[C@@H](C(=O)O)N1 | inactive: 14.3% [at 56.9 µM] | –
80 | CC(C)NCC(O)c1ccc(NS(C)(=O)=O)cc1 (stereo not drawn) | – | inactive
81 | Cc1cccc(CCN2CCC(C(=O)c3ccc(NS(C)(=O)=O)cc3)CC2)n1 | inactive: 161% [at 56.9 µM] | –
82 | C#C[C@]1(O)CCC2C3CCC4=Cc5oncc5CC4(C)C3CCC21C (stereo partly drawn) | inactive: 16% | –
83 | Nc1ncnc2c1ncn2C1OC(C(=O)NC2CC2)C(O)C1O (stereo not drawn) | inactive: 12.6% | –
84 | CNc1cc(NS(=O)(=O)c2ccc(N)cc2)nc(NC)n1 | inactive: 13% | –
85 | C[N+](C)(CCCCCC[N+](C)(C)CCCN1C(=O)c2ccccc2C1=O)CCCN1C(=O)c2ccccc2C1=O | inactive: 280% [at 56.9 µM] | –
86 | CCN1/C(=C/c2ccc3cc(C)ccc3[n+]2CC)Sc2cc(C)c(C)cc21 | inactive: -35% | –
87 | CCN(CC)CCNC(=O)c1ccc(NC(C)=O)cc1 | – | inactive
88 | CCC(=O)/C=C1\Sc2ccc(OC)cc2N1CCO | inactive: -39.1% | –
89 | O=C1SC(SC(=Nc2ccccc2)Nc2ccccc2)C(=O)N1c1ccccc1 (stereo not drawn) | inactive: -25.9% | –
90 | COCCN(C(=O)CSc1ncccn1)c1c(N)n(Cc2ccccc2)c(=O)[nH]c1=O | inactive: 60.9% | –
91 | COc1ccc(CC(=O)NCCc2cnc[nH]2)cc1 | inactive: 55% | –
92 | NC(C(=O)O)c1cccc(O)c1 (stereo not drawn) | inactive: 150% [at 56.9 µM] | –
93 | COC(=O)[C@H]1[C@H]2C[C@@H]3c4[nH]c5cc(OC)ccc5c4CCN3C[C@H]2C[C@@H](OC(=O)c2cc(OC)c(OC)c(OC)c2)[C@@H]1OC | inactive: -29.6% | –
94 | CCn1c(SCC(=O)N2CCN(c3ccc(Cl)cc3)CC2)nc2ccccc2c1=O | inactive: 0.958% | –
95 | CCCCOc1ccc(/C=C/C2=CC(C)(C)NC(=S)N2)cc1OCC | inactive: 80.7% | –
96 | Clc1ccc2c(c1)N=C(N1CCNCC1)c1ccccc1N2 | inactive: 410% [at 56.9 µM] | –
97 | CCOC(=O)N/N=C/c1ccccc1F | inactive: 59.6% | –
98 | O=C(Nc1ccc2nsnc2c1)C1CC1 | inactive: 60.5% | –
99 | Nc1ncnc2c1ncn2C1OC(CO)C(O)C1O (stereo not drawn) | inactive: 6.18% | –
100 | O=C(Nc1cccnc1)c1cc(-c2cccc(Cl)c2)on1 | inactive: -3.94% | –
101 | COc1ccc(-c2nn(C)c3sc(C(=O)NCCN(C)C)cc23)cc1OC | inactive: -24.5% | –
102 | C[C@@H](NC(=O)[C@@H]1Cc2ccccc2CN1)C(=O)NCC1CCCO1 (stereo partly drawn) | inactive: 54.8% | –
103 | CCOc1cccc(C(=O)NC(c2ccccc2)C(C)C)c1 (stereo not drawn) | inactive: 60.4% | –
